# From the supplement of paper PMC8728848
# This is one part of the list.
# B1: CGL (Crenomytilus grayanus), H2FH31 (protein)
# chain: MTTFLIKHKASGKFLHPYGGSSNPANNTKLVLHSDIHERMYFQFDVVDERWGYIKHVASGKIVHPYGGQANPPNETNMVLHQDRHDRALFAMDFFNDNIMHKGGKYIHPKGGSPNPPNNTETVIHGDKHAAMEFIFVSPKNKDKRVLVYA
# How the values were obtained:
# Assay in all cases: glycan array binding signal (z-score within array); higher = stronger binding
# Conditions in all cases: glycan notation: IUPAC condensed, linker removed
# [1] = target: Neu5Ac(a2-6)Gal(b1-4)GlcNAc(b1-2)Man(a1-3)[GlcNAc(b1-4)][Neu5Ac(a2-6)Gal(b1-4)GlcNAc(b1-2)Man(a1-6)]Man(b1-4)GlcNAc(b1-4)GlcNAc
# Summary of the method: (§1)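 The binding signal is a Z-score computed within each array and averaged over linkers. Arrays of the same protein sequence at different concentrations or buffers were also averaged together. Data originate from 3228 arrays in the Consortium for Functional Glycomics database, kept only where the protein sequence was available.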
# [2] = target: Neu5Ac(a2-6)Gal(b1-4)GlcNAc(b1-2)Man(a1-3)[Man(a1-6)]Man(b1-4)GlcNAc(b1-4)GlcNAc
# Summary of the method: as §1
# [3] = target: Neu5Ac(a2-6)Gal(b1-4)GlcNAc(b1-2)Man(a1-3)[Neu5Ac(a2-3)Gal(b1-4)GlcNAc(b1-2)Man(a1-6)]Man(b1-4)GlcNAc(b1-4)GlcNAc
# Summary of the method: as §1
# [4] = target: Neu5Ac(a2-6)Gal(b1-4)GlcNAc(b1-2)Man(a1-3)[Neu5Ac(a2-6)Gal(b1-4)GlcNAc(b1-2)Man(a1-6)]Man(b1-4)GlcNAc(b1-4)GlcNAc
# Summary of the method: as §1
# [5] = target: Neu5Ac(a2-6)Gal(b1-4)GlcNAc(b1-2)Man(a1-3)[Neu5Ac(a2-6)Gal(b1-4)GlcNAc(b1-2)Man(a1-6)]Man(b1-4)GlcNAc(b1-4)[Fuc(a1-6)]GlcNAc
# Summary of the method: as §1
# [6] = target: Neu5Ac(a2-6)Gal(b1-4)GlcNAc(b1-2)Man(a1-6)Man(b1-4)GlcNAc(b1-4)GlcNAc
# Summary of the method: as §1
# [7] = target: Neu5Ac(a2-6)Gal(b1-4)GlcNAc(b1-2)Man(a1-6)[Gal(b1-4)GlcNAc(b1-2)Man(a1-3)]Man(b1-4)GlcNAc(b1-4)GlcNAc
# Summary of the method: as §1
# [8] = target: Neu5Ac(a2-6)Gal(b1-4)GlcNAc(b1-2)Man(a1-6)[GlcNAc(b1-2)Man(a1-3)]Man(b1-4)GlcNAc(b1-4)GlcNAc
# Summary of the method: as §1
# [9] = target: Neu5Ac(a2-6)Gal(b1-4)GlcNAc(b1-2)Man(a1-6)[Man(a1-3)]Man(b1-4)GlcNAc(b1-4)GlcNAc
# Summary of the method: as §1
# [10] = target: Neu5Ac(a2-6)Gal(b1-4)GlcNAc(b1-2)[Neu5Ac(a2-6)Gal(b1-4)GlcNAc(b1-4)]Man(a1-3)[GlcNAc(b1-4)][Neu5Ac(a2-6)Gal(b1-4)GlcNAc(b1-2)[Neu5Ac(a2-6)Gal(b1-4)GlcNAc(b1-6)]Man(a1-6)]Man(b1-4)GlcNAc(b1-4)GlcNAc
# Summary of the method: as §1
# [11] = target: Neu5Ac(a2-6)Gal(b1-4)GlcNAc(b1-2)[Neu5Ac(a2-6)Gal(b1-4)GlcNAc(b1-4)]Man(a1-3)[GlcNAc(b1-4)][Neu5Ac(a2-6)Gal(b1-4)GlcNAc(b1-4)Man(a1-6)]Man(b1-4)GlcNAc(b1-4)GlcNAc
# Summary of the method: as §1
# [12] = target: Neu5Ac(a2-6)Gal(b1-4)GlcNAc(b1-2)[Neu5Ac(a2-6)Gal(b1-4)GlcNAc(b1-6)]Man(a1-6)[Neu5Ac(a2-6)Gal(b1-4)GlcNAc(b1-2)Man(a1-3)][GlcNAc(b1-4)]Man(b1-4)GlcNAc(b1-4)GlcNAc
# Summary of the method: as §1
# [13] = target: Neu5Ac(a2-6)Gal(b1-4)GlcNAc(b1-3)Gal(b1-3)GlcNAc
# Summary of the method: as §1
# [14] = target: Neu5Ac(a2-6)Gal(b1-4)GlcNAc(b1-3)Gal(b1-4)GlcNAc
# Summary of the method: as §1
# [15] = target: Neu5Ac(a2-6)Gal(b1-4)GlcNAc(b1-3)Gal(b1-4)GlcNAc(b1-2)Man(a1-3)[Neu5Ac(a2-6)Gal(b1-4)GlcNAc(b1-3)Gal(b1-4)GlcNAc(b1-2)Man(a1-6)]GalNAc
# Summary of the method: as §1
# [16] = target: Neu5Ac(a2-6)Gal(b1-4)GlcNAc(b1-3)Gal(b1-4)GlcNAc(b1-3)Gal(b1-4)GlcNAc
# Summary of the method: as §1
# [17] = target: Neu5Ac(a2-6)Gal(b1-4)GlcNAc(b1-3)Gal(b1-4)GlcNAc(b1-3)Gal(b1-4)GlcNAc(b1-2)Man(a1-3)[Neu5Ac(a2-6)Gal(b1-4)GlcNAc(b1-3)Gal(b1-4)GlcNAc(b1-3)Gal(b1-4)GlcNAc(b1-2)Man(a1-6)]GalNAc
# Summary of the method: as §1
# [18] = target: Neu5Ac(a2-6)Gal(b1-4)GlcNAc(b1-3)Gal(b1-4)GlcNAc(b1-3)GalNAc
# Summary of the method: as §1
# [19] = target: Neu5Ac(a2-6)Gal(b1-4)GlcNAc(b1-3)Gal(b1-4)GlcNAc(b1-3)[Neu5Ac(a2-6)Gal(b1-4)GlcNAc(b1-3)Gal(b1-4)GlcNAc(b1-6)]GalNAc
# Summary of the method: as §1
# [20] = target: Neu5Ac(a2-6)Gal(b1-4)GlcNAc(b1-3)Gal(b1-4)GlcNAc(b1-6)[Gal(b1-3)]GalNAc
# Summary of the method: as §1
# [21] = target: Neu5Ac(a2-6)Gal(b1-4)GlcNAc(b1-3)Gal(b1-4)[Fuc(a1-3)]GlcNAc(b1-3)Gal(b1-4)[Fuc(a1-3)]GlcNAc
# Summary of the method: as §1
# [22] = target: Neu5Ac(a2-6)Gal(b1-4)GlcNAc(b1-3)GalNAc
# Summary of the method: as §1
# [23] = target: Neu5Ac(a2-6)Gal(b1-4)GlcNAc(b1-3)[Neu5Ac(a2-6)Gal(b1-4)GlcNAc(b1-6)]GalNAc
# Summary of the method: as §1
# [24] = target: Neu5Ac(a2-6)Gal(b1-4)GlcNAc(b1-6)GalNAc
# Summary of the method: as §1
# [25] = target: Neu5Ac(a2-6)Gal(b1-4)GlcNAc(b1-6)[Gal(b1-3)GlcNAc(b1-3)]Gal(b1-4)Glc
# Summary of the method: as §1
# [26] = target: Neu5Ac(a2-6)Gal(b1-4)GlcNAc(b1-6)[Gal(b1-3)]GalNAc
# Summary of the method: as §1
# [27] = target: Neu5Ac(a2-6)Gal(b1-4)GlcNAc6S
# Summary of the method: as §1
# Neu5Ac(a2-6)GalNAc = target: Neu5Ac(a2-6)GalNAc
# Summary of the method: as §1
# [28] = target: Neu5Ac(a2-6)GalNAc(b1-4)GlcNAc
# Summary of the method: as §1
# [29] = target: Neu5Ac(a2-6)GalNAc(b1-4)GlcNAc6S
# Summary of the method: as §1
# [30] = target: Neu5Ac(a2-6)GlcNAc(b1-4)GlcNAc
# Summary of the method: as §1
binder,measurement,setting,value
B1,glycan array binding signal (z-score),[1],-0.362
same,glycan array binding signal (z-score),[2],-0.308
same,glycan array binding signal (z-score),[3],-0.337
same,glycan array binding signal (z-score),[4],-0.356
same,glycan array binding signal (z-score),[5],-0.292
same,glycan array binding signal (z-score),[6],-0.255
same,glycan array binding signal (z-score),[7],-0.162
same,glycan array binding signal (z-score),[8],-0.27
same,glycan array binding signal (z-score),[9],-0.418
same,glycan array binding signal (z-score),[10],-0.455
same,glycan array binding signal (z-score),[11],-0.347
same,glycan array binding signal (z-score),[12],-0.332
same,glycan array binding signal (z-score),[13],-0.399
same,glycan array binding signal (z-score),[14],-0.281
same,glycan array binding signal (z-score),[15],-0.229
same,glycan array binding signal (z-score),[16],-0.315
same,glycan array binding signal (z-score),[17],-0.204
same,glycan array binding signal (z-score),[18],-0.355
same,glycan array binding signal (z-score),[19],-0.298
same,glycan array binding signal (z-score),[20],-0.308
same,glycan array binding signal (z-score),[21],-0.337
same,glycan array binding signal (z-score),[22],-0.363
same,glycan array binding signal (z-score),[23],-0.279
same,glycan array binding signal (z-score),[24],-0.338
same,glycan array binding signal (z-score),[25],-0.15
same,glycan array binding signal (z-score),[26],-0.388
same,glycan array binding signal (z-score),[27],-0.326
same,glycan array binding signal (z-score),Neu5Ac(a2-6)GalNAc,-0.349
same,glycan array binding signal (z-score),[28],-0.454
same,glycan array binding signal (z-score),[29],-0.355
same,glycan array binding signal (z-score),[30],-0.334
